In patent US10299477B2 (priority 2015, dated 2019):

Key:
Magnaporthe grisea = type: in vivo; settings: 250 ppm spray, preventive; control value class
Phytophthora infestans = type: in vivo; settings: 250 ppm spray (2.5 ml/pot), preventive; 5-10 days after inoculation; control value class
[1] = test system: Colletotrichum orbiculare; settings: 250 ppm spray (2.5 ml/pot), preventive; 6-10 days after inoculation; control value class

SMILES	Test A control value (blast on rice) (Magnaporthe grisea)	Test F control value (late blight on tomato) (Phytophthora infestans)	Test H control value (anthracnose on cucumber) [1]
CCOC(=O)COc1ccc(Cl)c(-c2ccc(=O)n(CC)c2-c2c(F)cccc2F)c1 [Compound 307]	L (L shows 50% or less of control values)	L (L shows 50% or less of control values)	L (L shows 50% or less of control values)
O=c1ccc(-c2ccc(Cl)cc2Cl)c(-c2c(F)cccc2F)n1CC(F)F [Compound 345]	H (H shows more than 50% of control values)	H (H shows more than 50% of control values)	H (H shows more than 50% of control values)
CCn1c(-c2c(F)cccc2F)c(-c2cc(OC3CCCCC3)ccc2Cl)ccc1=O [Compound 295]	L (L shows 50% or less of control values)	L (L shows 50% or less of control values)	L (L shows 50% or less of control values)
CCn1c(-c2c(F)cccc2F)c(-c2cc(OCC(F)(F)F)ccc2Cl)ccc1=O [Compound 262]	H (H shows more than 50% of control values)	L (L shows 50% or less of control values)	H (H shows more than 50% of control values)
Cn1c(-c2c(F)cccc2F)c(-c2ccc(Br)cc2)ccc1=O [Compound 289]	H (H shows more than 50% of control values)	L (L shows 50% or less of control values)	L (L shows 50% or less of control values)
CCn1c(-c2c(F)cccc2F)c(-c2ccc(Br)cc2)cc(Br)c1=O [Compound 293]	H (H shows more than 50% of control values)	L (L shows 50% or less of control values)	H (H shows more than 50% of control values)
Cc1ccc(-c2ccc(=O)n(C)c2-c2c(F)cccc2F)cc1 [Compound 270]	H (H shows more than 50% of control values)	L (L shows 50% or less of control values)	L (L shows 50% or less of control values)
COCOc1ccc(Cl)c(-c2ccc(=O)n(CC(F)F)c2-c2c(F)cccc2F)c1 [Compound 213]	H (H shows more than 50% of control values)	L (L shows 50% or less of control values)	H (H shows more than 50% of control values)
CCn1c(-c2c(F)cc(Br)cc2F)c(-c2cc(OC)c(Cl)c(OC)c2)ccc1=O [Compound 202]	H (H shows more than 50% of control values)	L (L shows 50% or less of control values)	H (H shows more than 50% of control values)
COc1ccc(Cl)c(-c2ccc(=O)n(CC(F)F)c2-c2c(F)cccc2F)c1 [Compound 194, 5-(2-chloro-5-methoxyphenyl)-1-(2,2-difluoroethyl)-6-(2,6-difluorophenyl)pyridine-2(1H)-one]	H (H shows more than 50% of control values)	L (L shows 50% or less of control values)	H (H shows more than 50% of control values)
CCn1c(-c2c(F)cccc2F)c(-c2cccc(C)c2)ccc1=O [Compound 219]	H (H shows more than 50% of control values)	L (L shows 50% or less of control values)	L (L shows 50% or less of control values)
Cn1c(-c2c(F)cc(F)cc2F)c(-c2cc(F)ccc2Cl)ccc1=O [Compound 339]	H (H shows more than 50% of control values)	H (H shows more than 50% of control values)	H (H shows more than 50% of control values)
CCn1c(-c2c(F)cccc2F)c(-c2cccc(C#N)c2)cc(Cl)c1=O [Compound 353]	H (H shows more than 50% of control values)	L (L shows 50% or less of control values)	L (L shows 50% or less of control values)
C#CCOc1ccc(Cl)c(-c2ccc(=O)n(CC)c2-c2c(F)cccc2F)c1 [Compound 244]	H (H shows more than 50% of control values)	L (L shows 50% or less of control values)	H (H shows more than 50% of control values)
CCn1c(-c2c(F)cccc2F)c(-c2cc(OCCOC)ccc2Cl)cc(Br)c1=O [Compound 196]	H (H shows more than 50% of control values)	L (L shows 50% or less of control values)	H (H shows more than 50% of control values)
CCn1c(-c2c(F)cccc2F)c(-c2cc(OCC3OCCO3)ccc2Cl)ccc1=O [Compound 315]	H (H shows more than 50% of control values)	H (H shows more than 50% of control values)	L (L shows 50% or less of control values)
COCOc1ccc(Cl)c(-c2cc(Cl)c(=O)n(CC(F)F)c2-c2c(F)cccc2F)c1 [Compound 222]	H (H shows more than 50% of control values)	L (L shows 50% or less of control values)	H (H shows more than 50% of control values)
CCn1c(-c2c(F)cccc2F)c(-c2cc(OCCCOC)ccc2Cl)ccc1=O [Compound 310]	H (H shows more than 50% of control values)	L (L shows 50% or less of control values)	L (L shows 50% or less of control values)
CCc1ccccc1-c1ccc(=O)n(C)c1-c1c(F)cccc1F [Compound 344]	H (H shows more than 50% of control values)	L (L shows 50% or less of control values)	L (L shows 50% or less of control values)
Cn1c(-c2c(F)cccc2F)c(-c2cc(F)ccc2Cl)cc(Cl)c1=O [Compound 362]	H (H shows more than 50% of control values)	L (L shows 50% or less of control values)	H (H shows more than 50% of control values)
Cc1ccc(-c2cc(Cl)c(=O)n(C)c2-c2c(F)cccc2F)cc1 [Compound 274]	H (H shows more than 50% of control values)	L (L shows 50% or less of control values)	H (H shows more than 50% of control values)
CCOCOc1ccc(Cl)c(-c2ccc(=O)n(C)c2-c2c(F)cccc2F)c1 [Compound 326]	H (H shows more than 50% of control values)	L (L shows 50% or less of control values)	H (H shows more than 50% of control values)
COc1cc(OC)c(Cl)c(C2=C(c3c(F)cccc3F)N(CC(F)F)C(=O)CC2)c1 [Compound 336]	H (H shows more than 50% of control values)	L (L shows 50% or less of control values)	H (H shows more than 50% of control values)
CCn1c(-c2c(F)cccc2F)c(-c2cc(OCC3CC3)ccc2Cl)cc(Cl)c1=O [Compound 221]	H (H shows more than 50% of control values)	L (L shows 50% or less of control values)	H (H shows more than 50% of control values)
COc1cc(OC)cc(C2=C(c3c(F)cc(Br)cc3F)N(C)C(=O)CC2)c1 [Compound 187]	H (H shows more than 50% of control values)	H (H shows more than 50% of control values)	L (L shows 50% or less of control values)
Cn1c(-c2c(F)cccc2F)c(-c2cc(OC[Si](C)(C)C)ccc2Cl)ccc1=O [Compound 261]	L (L shows 50% or less of control values)	L (L shows 50% or less of control values)	L (L shows 50% or less of control values)
COc1cc(OC)c(Cl)c(-c2ccc(=O)n(C)c2-c2c(F)cc(OCC(F)(F)F)cc2F)c1 [Compound 319]	H (H shows more than 50% of control values)	H (H shows more than 50% of control values)	H (H shows more than 50% of control values)
